Experimental data: PubChem BioAssay (NCI)
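Compound exposure: 48 hours, 5 concentrations, 96-well plates. The concentration for 50% growth inhibition is given as GI50. TGI marks complete inhibition of growth.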

Test system: NCI-H322M lung
Experiment: NCI tumour cell line growth inhibition, 48 h

## CN1CCN(Cc2ccc(NC(=O)c3cncc(C#Cc4cnc(N)nc4)c3)cc2C(F)(F)F)CC1
  GI50: 0.41 µM
  TGI: 13.7 µM

## C#Cc1nc(/C=C/CCCCCCC(=O)NO)cs1
  GI50: 17.2 µM
  TGI: > 100 µM

## CC(C)=CCc1c(O)c(CC=C(C)C)c2c(c1O)C(=O)C1=C[C@@H]3C[C@H]4C(C)(C)O[C@@](C/C=C(\C)C(=O)O)(C3=O)[C@@]14O2
  GI50: 28.7 µM
  TGI: 98.9 µM
